According to PubChem BioAssay AID686979 (National Center for Advancing Translational Sciences (NCATS), 2013):
Among all 420,000 compounds or so, about 50,000 (12%) were called active. Inconclusive means that the source gave no clear call. Such entries were picked first, then a sample of the others. Calls follow the shape of the dose curve; as a rule, active = well fitted inhibition curve with a large enough effect; inconclusive = small, poorly fitted or top-dose-only effect; inactive = flat fitted curve, though single readings scatter. Potencies of inconclusive entries are left out as doubtful fits.

assay: qHTS for Inhibitors of human tyrosyl-DNA phosphodiesterase 1 (TDP1): qHTS in cells in presence of CPT; details: chicken DT40 Tdp1-/-;hTDP1 cells + 20 nM CPT, ATP luminescence, 48 h; activity change, negative = growth inhibition: at 46.2 µM (top of the series) unless noted; also: nearly all actives have a fitted effect of over 55% in size
How it was run: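 Chicken DT40 Tdp1-/- cells stably complemented with human TDP1 were seeded at 400 cells/well in medium containing 20 nM camptothecin, exposed to pin-transferred compounds, and grown at 37 °C for at least 48 hr. Viability was read as ATP luminescence.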
% is scaled to controls: 0 for no effect and ±100 for the full control effect; potency is read from the fitted curve at half-maximal effect; tags tell the direction and shape of the fitted curve.

Row | SMILES | Potency | activity change, negative = growth inhibition
1 | Cc1ccc(CN2C(=O)C(C)Oc3ccc(C)cc32)cc1 (stereo not drawn) | inconclusive [inhibitor, partial curve, poor fit] | –
2 | COc1cccc(OC)c1C(=O)N1CCN(C(=O)c2ccc(-c3ccccc3)cc2)CC1 | inconclusive [inhibitor, single point] | –
3 | CCOc1cc(C(=O)Nc2ccc(N3CCOCC3)cc2)cc(Br)c1OC | inconclusive [inhibitor, partial curve, poor fit] | –
4 | O=C(O)c1ccc(COCC(F)(F)C(F)F)o1 | – | inactive: -1.96%
5 | Cc1cc(C)c2nc(-c3ccccn3)cc(C(=O)NCc3ccc(S(N)(=O)=O)cc3)c2c1 | inconclusive [inhibitor, partial curve] | –
6 | S=c1[nH]nc(C2CCCCC2)n1/N=C/c1cccc(Cl)c1Cl | inconclusive [inhibitor, single point] | –
7 | Cc1c(CCNC(=O)c2ccc(Br)o2)sc2nc(-c3ccc(F)cc3)nn12 | active: 11.6 µM | –
8 | O=C(Cn1cc(S(=O)(=O)Cc2ccccc2)c2ccccc21)Nc1ccccc1 | – | inactive: -19.2%
9 | O=S(=O)(Nc1ccccc1)c1ccc(NS(=O)(=O)c2c(F)cccc2F)cc1 | – | inactive: 7.53%
10 | CC1CCN(C(=O)C2CCCCN2S(=O)(=O)c2cccc([N+](=O)[O-])c2)CC1 (stereo not drawn) | inconclusive [inhibitor, single point] | –
11 | C=CCN(C)CC/C=C1\c2ccccc2CSc2ccccc21 | inconclusive [inhibitor, single point] | –
12 | CC(=O)c1ccc(OCC(O)CN2CCOCC2)cc1 (stereo not drawn) | – | inactive: -6.25%
13 | COC(=O)c1sc(OC)cc1OCc1ccc(C)cc1 | – | inactive: -6.79%
14 | Cc1ccc(NC(=O)Cn2cnc3sc(C(=O)O)c(C)c3c2=O)cc1Cl | – | inactive: -8.33%
15 | CCc1ccc(-c2csc3[n+]2CCN3C(C)=O)cc1 | inconclusive [inhibitor, single point] | –
16 | CCNC(=S)N/N=C/c1ccccc1[N+](=O)[O-] | active: 23.1 µM | –
17 | CCc1cccc(NC(=O)CSC2=Nc3ccccc3N=C(c3ccc(F)cc3)C2)c1 | active: 20.6 µM | –
18 | CCNC(=O)c1c(NC(=O)C2COc3ccccc3O2)sc2c1CCCC2 (stereo not drawn) | inconclusive [inhibitor, partial curve] | –
19 | Cc1c(Cl)cccc1NC(=O)c1ncn[nH]1 | – | inactive: 5.74%
20 | CCOC(=O)C1Cn2c(nc3c(c2=O)C(C)(C)Cc2ccccc2-3)S1 (stereo not drawn) | – | inactive: -13.3%
21 | CN(Cc1ccco1)c1nc(-c2ccc3c(c2)OCO3)nc2ccccc12 | inconclusive [inhibitor, full curve, poor fit] | –
22 | CC(C)=C1CCC(C)CC1=NNC(N)=S (stereo not drawn) | inconclusive [inhibitor, single point] | –
23 | COc1cc(NC(=O)CN(c2ccc(C)cc2)S(=O)(=O)c2cccc3nonc23)cc(OC)c1 | – | inconclusive: -30.7% [inhibitor]
24 | CCOC(=O)[C@]12CCCC=C1N(Cc1ccc(Cl)cc1Cl)C(=O)[C@H](CC(=O)NCc1ccc(C)o1)C2 | inconclusive [inhibitor, single point] | –
25 | CCOC(=O)C(Sc1cc(C)nc(N)n1)C(C)=O (stereo not drawn) | – | inactive: -14%

Row | SMILES | Potency | activity change, negative = growth inhibition
26 | Cc1ccc2[nH]c(=O)c(CN(Cc3ccc4c(c3)OCO4)Cc3nnnn3Cc3ccco3)cc2c1 | active: 11.6 µM | –
27 | COc1ccc(CN(C)Cc2nc(Cc3cccc(F)c3)no2)c2cccnc12 | active: 11.6 µM | –
28 | Cc1cnc(C(=O)N2CCN(S(=O)(=O)c3ccc4ccccc4c3)CC2)cn1 | inconclusive [inhibitor, partial curve] | –
29 | COc1ccc(N2CCN(C(=O)COC(=O)Cc3cccc(OC)c3)CC2)cc1 | – | inactive: -29.8%
30 | CCOc1ccc(-c2nonc2NC(=O)COc2c(C)cc(C)cc2C)cc1OCC | inconclusive [inhibitor, partial curve] | –
31 | CCCCCn1c(C(C)NC(=O)c2ccccc2)nc2ccccc21 (stereo not drawn) | inconclusive [inhibitor, single point] | –
32 | CCOC(=O)COc1cccc2c(=O)n(CC(=O)NCc3ccc4c(c3)OCO4)ccc12 | active: 1.84 µM | –
33 | CSc1nnc2c3cc(F)ccc3n(Cc3ccccc3)c2n1 | – | inactive: 3.81%
34 | Fc1ccc(-c2noc3ncnc(NCCc4ccccc4)c23)cc1 | inconclusive [inhibitor, single point] | –
35 | O=C(c1c(F)cccc1F)N1CCCC(c2nc(-c3cccs3)no2)C1 (stereo not drawn) | inconclusive [inhibitor, single point] | –
36 | Cc1ccc(S(=O)(=O)Nc2ccc3c(c2)C(=O)c2ccccc2-3)cc1 | inconclusive [inhibitor, single point] | –
37 | CC(Oc1ccc(Br)cc1)C(=O)NCCCN1CCCC1=O (stereo not drawn) | – | inactive: 2.85%
38 | O=[N+]([O-])c1ccc(Sc2ccc(Cl)c(Cl)c2)nc1 | inconclusive [inhibitor, partial curve, poor fit] | –
39 | Cc1cc(C)cc(NC(=O)C2CCCCN2S(=O)(=O)c2ccccc2)c1 (stereo not drawn) | active: 20.6 µM | –
40 | CCc1nn(CC(=O)NCCc2ccc(OC)cc2OC)c(=O)c2cc3c(OC)cccc3n12 | inconclusive [inhibitor, partial curve, poor fit] | –
41 | CCOC(=O)Cn1c(=NC(=O)C(C)C)sc2c(C)cc(C)cc21 | inconclusive [inhibitor, partial curve, poor fit] | –
42 | CCn1c(SCc2ccc(F)cc2)nnc1C1CCN(S(=O)(=O)c2ccc(OC)cc2)CC1 | inconclusive [inhibitor, single point] | –
43 | Cc1nn(-c2ccccc2)c(C)c1C(=O)OCC(=O)Nc1ccccc1 | inconclusive [inhibitor, single point] | –
44 | COc1ccc(C(c2nnnn2Cc2ccccc2)N2CCN(C/C=C/c3ccccc3)CC2)cc1 (stereo not drawn) | inconclusive [inhibitor, single point] | –
45 | CCOc1cc(CNC(=O)C2COc3ccccc3C2)cc(OCC)c1OCC (stereo not drawn) | active: 14.6 µM | –
46 | Cc1ccc(CCNC(=O)CS(=O)Cc2nc(-c3cccc(C)c3)oc2C)cc1 (stereo not drawn) | inconclusive [inhibitor, partial curve] | –
47 | O=C(Nc1cccnc1)c1ccc(-c2cc(Cl)ccc2Cl)o1 | inconclusive [inhibitor, single point] | –
48 | O=C(NCCc1ccccc1Cl)c1ccc(Cn2c(=O)c3cccn3c3cccnc32)cc1 | active: 10.3 µM | –
49 | O=C1CC(c2cc(Br)ccc2F)c2cc3c(cc2N1)CCC3 (stereo not drawn) | active: 2.91 µM | –
50 | COC(=O)/C=C1\OCc2cc(C)ccc21 | – | inactive: 5.2%

Row | SMILES | Potency | activity change, negative = growth inhibition
51 | CCOC(=O)C1CCCN(CC(=O)Nc2ccc(C(=O)Nc3ccccc3OC)cc2)C1 (stereo not drawn) | inconclusive [inhibitor, single point] | –
52 | Cc1ccccc1C(=O)n1nc(-c2ccco2)nc1NCc1ccc(Cl)cc1 | inconclusive [inhibitor, partial curve] | –
53 | COc1ccc(CCn2cc3c(c2-c2ccc(Br)cc2)c(=O)n(C)c(=O)n3C)cc1OC | active: 23.1 µM | –
54 | CCOC(=O)C1CSC(CC(=O)Nc2ccc(Cl)cc2)C(=O)N1 (stereo not drawn) | – | inactive: -1.41%
55 | CCN1C(=O)N2C[C@H]3CON(C)[C@H]3C[C@H]2c2ccccc21 | – | inactive: -11.6%
56 | Cc1cccnc1NC(=O)c1ccc(NS(=O)(=O)c2ccc3[nH]c(=O)[nH]c3c2)cc1 | – | inactive: 21.3%
57 | Cc1ccc(C)c(N2CCN(C(=O)C3CCCN(S(=O)(=O)c4ccc5c(c4)oc(=O)n5C)C3)CC2)c1 (stereo not drawn) | active: 16.4 µM | –
58 | COc1ccc(CCNC(=O)C(=O)N/N=C/c2cccs2)cc1OC | – | inactive: 6.13%
59 | CC1(c2ccccc2)NC(=O)N(NC(=O)COC(=O)c2cc(Br)ccc2O)C1=O (stereo not drawn) | – | inactive: -7.05%
60 | Cc1cccc(NC(=O)CN(CC2CCCO2)C(=O)c2ccc(S(C)(=O)=O)cc2)c1C (stereo not drawn) | – | inactive: 0.977%
61 | COc1ccc(NC(=O)c2ccc(CNc3c(NC4CCCCC4)c(=O)c3=O)cc2)c(OC)c1 | – | inconclusive: -30.9% [inhibitor]
62 | COc1ccc(NC2CCCN(C(=O)CCN3CCOCC3)C2)cc1 (stereo not drawn) | – | inactive: -6.95%
63 | Cc1ccc2c(=O)n3c(nc2c1)C(CC(C)C)NC(=O)c1cccnc1-3 (stereo not drawn) | – | inactive: -4.03%
64 | O=C(COc1ccc(Cl)cc1)Nc1ccc(-c2nc3ccccc3s2)c(O)c1 | inconclusive [inhibitor, single point] | –
65 | O=C(Nc1ccccc1Cc1ccccc1)c1oc2ccccc2c1COc1ccccc1 | inconclusive [inhibitor, single point] | –
66 | CCO[C@@H]1OC(C(=O)NCc2nc3ccccc3[nH]2)=C[C@H](C2CC2)[C@H]1CCCO | active: 4.61 µM | –
67 | COc1ccc(C2C(C(=O)Nc3cc(C)on3)c3ccccc3C(=O)N2C)cc1 (stereo not drawn) | inconclusive [inhibitor, single point] | –
68 | CN(C)c1ccc(C(CNS(=O)(=O)c2ccc3ccccc3c2)N2CCOCC2)cc1 (stereo not drawn) | – | inactive: 0.109%
69 | O=C(CC[C@H]1O[C@@H](n2ccc(=O)[nH]c2=O)[C@H](O)[C@@H]1O)NCCc1c[nH]c2ccccc12 | – | inactive: 0.453%
70 | CCN(C[C@H]1N[C@@](CC)(C(=O)OC)[C@H]2C(=O)N(C)C(=O)[C@@H]12)S(=O)(=O)c1ccc(C(C)(C)C)cc1 | inconclusive [inhibitor, single point] | –
71 | CCCCCCn1c(C(C)NC(=O)c2ccco2)nc2ccccc21 (stereo not drawn) | inconclusive [inhibitor, single point] | –
72 | C=C(C)C(=O)Nc1cccc(C2=NOC3(C2)C[C@@H](C(N)=O)N(C(=O)CCCCC)C3)c1 (stereo partly drawn) | – | inactive: -1.01%
73 | COc1ccc(NS(=O)(=O)c2cccc(C(=O)N3CCCC(C)C3)c2)cc1 (stereo not drawn) | inconclusive [inhibitor, single point] | –
